Results reported in article PMC6919601, “Identification of Plasmodium dipeptidyl aminopeptidase allosteric inhibitors by high throughput screening” (PLoS ONE, 2019).
The campaign covered roughly 110,000 compounds. About 230 (0.21%) showed an effect of 50% or more. This is one part of the list.

Each compound was assayed against DPAP1 (Plasmodium falciparum, UniProt Q8IIJ9) (assay: primary screen, percent inhibition; read by cleavage of a fluorogenic dipeptide substrate; higher = more effect of the substance).
Parameters: species or system P. falciparum D10 trophozoite lysates; single well
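Also: 30 min substrate incubation versus DMSO and 10 µM JCP410 controls.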

DPAP1, sequence (Q8IIJ9 whole entry, looked up): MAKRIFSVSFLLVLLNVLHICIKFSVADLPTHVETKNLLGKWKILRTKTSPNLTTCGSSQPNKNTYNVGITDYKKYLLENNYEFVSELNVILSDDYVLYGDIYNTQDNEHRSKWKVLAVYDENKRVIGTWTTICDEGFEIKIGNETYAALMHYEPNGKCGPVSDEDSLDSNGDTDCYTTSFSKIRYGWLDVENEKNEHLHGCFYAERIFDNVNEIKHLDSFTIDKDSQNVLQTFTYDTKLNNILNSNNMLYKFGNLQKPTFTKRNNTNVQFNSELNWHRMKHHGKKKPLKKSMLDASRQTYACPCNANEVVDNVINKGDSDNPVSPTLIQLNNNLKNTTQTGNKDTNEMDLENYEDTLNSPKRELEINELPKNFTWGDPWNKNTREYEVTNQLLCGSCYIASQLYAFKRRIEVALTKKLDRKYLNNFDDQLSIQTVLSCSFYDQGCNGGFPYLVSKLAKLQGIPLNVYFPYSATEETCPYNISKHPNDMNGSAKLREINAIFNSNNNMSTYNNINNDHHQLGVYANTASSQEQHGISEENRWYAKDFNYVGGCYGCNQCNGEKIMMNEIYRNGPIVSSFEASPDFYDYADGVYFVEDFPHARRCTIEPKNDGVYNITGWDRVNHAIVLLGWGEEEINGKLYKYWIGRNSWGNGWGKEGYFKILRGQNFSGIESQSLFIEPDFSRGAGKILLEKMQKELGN

Structure (SMILES)	% Inhibition @ 10 uM [%]
Cc1cccc(N2C(=O)C3C4CCC(C4)C3C2=O)c1 (centres unmarked)	1.15
CN(C(=O)c1c(Br)cnn1C)C12CC3CC(CC(C3)C1)C2	1.03
O=C(CCc1ccc(-n2cnc3cccnc32)cc1)NCCc1cccs1	3.96
Cc1ccccc1-c1nc(CSCC(=O)N2CCCC2)c(C)o1	-4.53
O=C(O)c1ccccc1-c1nc2cc(C3=NCCCN3)ccc2[nH]1	-1.17
O=C(O)C=C1C2CC3CC(C2)CC1C3	1.38
CCc1ccc(-c2cn3c(n2)sc2cc(C(=O)N4CCOCC4)ccc23)cc1	15.7
CCn1cc(CNC(=O)c2cc(-c3ccccc3OC)nc3ccccc23)cn1	-10.2
Cc1cccc(NC(=O)NCc2noc3ccccc23)n1	-1.68
COC(=O)c1sc(N2C(=O)c3oc4ccccc4c(=O)c3C2c2cccc(Cl)c2)nc1C (centres unmarked)	-2.92
COc1ccc(N/C=C(/C#N)c2nc(-c3ccc(OC)cc3)cs2)cc1	-4.3
COc1ccccc1C(=O)Nc1sc2c(c1C(N)=O)CCC(C)C2 (centres unmarked)	12.2
CCCCSc1nc(O)cc(=O)n1C	-3.04
O=C(c1cc2ccccc2oc1=O)N1CCCc2ccccc21	-4.18
COc1cc(NC(=O)CC(C)=O)c(OC)cc1Cl	-1.97
CC(=O)Nc1ccc(S(=O)(=O)Nc2cccc3ccccc23)cc1	-0.884
O=C(CNS(=O)(=O)c1ccc(Br)cc1)N1CCCCC1	4.5
O=C(NC1(C(F)(F)F)C(=O)Nc2c1c(=O)[nH]c(=O)n2-c1ccccc1)c1ccc(F)cc1 (centres unmarked)	-6.92
COc1ccc2c(c1)/C(=N/OC(=O)c1cccs1)CCC2	-1.68
CCCCC(=O)NCCc1nc2ccccc2[nH]1	0.777
CC(C(=O)NC1CCc2ccccc21)n1nc2ccccc2n1 (centres unmarked)	5.43
CCOc1ccc2[nH]c(SCC(=O)N3CCN(S(=O)(=O)c4ccccc4)C3C(C)C)nc2c1 (centres unmarked)	-3.34
N#Cc1nc(/C=C/c2cccs2)oc1NCc1cccnc1	3.27
CC(C)(C)c1ccccc1OCCOCCN1CCNCC1	-0.473
CCN(CC)C(=O)CN(c1cc2c(cc1OC)oc1ccccc12)S(=O)(=O)c1ccc(C)cc1	-5.23

Structure (SMILES)	% Inhibition @ 10 uM [%]
O=C(NCc1ccccc1)c1cc(-c2cccs2)nc2ccccc12	10.8
Cc1nn(-c2ccc3ccccc3c2)c(=O)c2ccccc12	-0.712
COc1ccc(Br)cc1C1C(C#N)=C(N)Oc2[nH]nc(C)c21 (centres unmarked)	2.36
CCOc1ccccc1C1C=C(c2ccc(OC)cc2)Nc2nnnn21 (centres unmarked)	0.0842
Cc1cc(O)ccc1NC(=O)c1ccc2c(c1)C(=O)N(Cc1cccnc1)C2=O	-6.47
CCc1nn(CCCC(=O)NC2CCCCC2C)c(=O)c2cc3occc3n12 (centres unmarked)	-0.281
O=C1CC(N2CCN(C/C=C/c3ccccc3)CC2)C(=O)N1c1ccc(Br)cc1 (centres unmarked)	-0.132
CCOc1ccc2nc(N3CCC(C(=O)Nc4cccnc4)CC3)sc2c1	3.4
CCOc1ccccc1-c1nn2c(-c3ccccc3OC)nnc2s1	2.89
Cc1c(CC(=O)O)c(=O)oc2cc3occ(-c4ccccc4)c3cc12	11.4
COc1ccc(S(=O)(=O)N(CC(=O)NCC2CCCO2)c2ccccc2)cc1 (centres unmarked)	3.21
CCc1ccc(C2c3c(oc4ccc(C)cc4c3=O)C(=O)N2c2nccs2)cc1 (centres unmarked)	-3.13
CCc1[nH]nc2c1C(c1ccc(OC)cc1)C(C#N)=C(N)O2 (centres unmarked)	-5.34
O=C(NCc1cccnc1)C1=CCN(S(=O)(=O)c2ccccc2)CC1	-3.35
Cc1nnc(SCc2ccccc2CSc2nnc(C)s2)s1	-4.04
CCC(Cc1ccccc1)NC(=O)c1nnc(Cc2ccccc2Cl)o1 (centres unmarked)	2.5
CC(C)Cc1ccc(C(C)c2nc3ccccc3[nH]2)cc1 (centres unmarked)	-0.712
c1ccc(CCC2NCCn3cccc32)cc1 (centres unmarked)	2.96
CCCCc1ccc(NC(=O)c2ccn(CC)n2)cc1	-1.64
O=C(NCCCN1CCc2ccccc2C1)C1CCN(c2nnc(N3CCCC3=O)s2)CC1	0.623
CCOc1ccc(/C=C2/CN(C)C/C(=C\c3ccc(OCC)cc3)C2=O)cc1	-5.51
CC(Cc1cccc(C(F)(F)F)c1)N1CCc2c([nH]c3ccccc23)C1 (centres unmarked)	-3.5
COc1ccc(-c2cc(C(F)(F)F)c(C#N)c(SCC(=O)O)n2)cc1OC	12.9
COc1ccccc1OCc1ccc(C(=O)N2N=C(C)CC2(O)C(F)(F)F)o1 (centres unmarked)	2.03
CC1CCCCN1Cc1nc2c(c(=O)n(C)c(=O)n2C)n1Cc1c(F)cccc1Cl (centres unmarked)	-0.499
